Drawing on PubChem BioAssay AID488969 (Vanderbilt High Throughput Screening Facility, 2010), this text covers z-score for 30 molecules.

Whole data set: some 110,000 compounds, median “z-score” near -0.1, cut for the highest 2% near 2. This is one part of the list.

The assay has as its target Metabotropic glutamate receptor 8 (Rattus norvegicus) (UniProt P70579). Nature of the assay: mGluR8 Gi/Go-coupled signaling modulation – cell-based, rat, thallium flux, HTS, primary screen (AID 488969). The conditions noted are these: HEK293 rat mGluR8, GIRK (G protein-gated inwardly rectifying potassium channel) thallium flux, FluoZin2; at 10 µM; stronger effect = higher value; submaximal glutamate (EC20) added with thallium.
UniProt P70579, sequence (P70579 whole entry, looked up): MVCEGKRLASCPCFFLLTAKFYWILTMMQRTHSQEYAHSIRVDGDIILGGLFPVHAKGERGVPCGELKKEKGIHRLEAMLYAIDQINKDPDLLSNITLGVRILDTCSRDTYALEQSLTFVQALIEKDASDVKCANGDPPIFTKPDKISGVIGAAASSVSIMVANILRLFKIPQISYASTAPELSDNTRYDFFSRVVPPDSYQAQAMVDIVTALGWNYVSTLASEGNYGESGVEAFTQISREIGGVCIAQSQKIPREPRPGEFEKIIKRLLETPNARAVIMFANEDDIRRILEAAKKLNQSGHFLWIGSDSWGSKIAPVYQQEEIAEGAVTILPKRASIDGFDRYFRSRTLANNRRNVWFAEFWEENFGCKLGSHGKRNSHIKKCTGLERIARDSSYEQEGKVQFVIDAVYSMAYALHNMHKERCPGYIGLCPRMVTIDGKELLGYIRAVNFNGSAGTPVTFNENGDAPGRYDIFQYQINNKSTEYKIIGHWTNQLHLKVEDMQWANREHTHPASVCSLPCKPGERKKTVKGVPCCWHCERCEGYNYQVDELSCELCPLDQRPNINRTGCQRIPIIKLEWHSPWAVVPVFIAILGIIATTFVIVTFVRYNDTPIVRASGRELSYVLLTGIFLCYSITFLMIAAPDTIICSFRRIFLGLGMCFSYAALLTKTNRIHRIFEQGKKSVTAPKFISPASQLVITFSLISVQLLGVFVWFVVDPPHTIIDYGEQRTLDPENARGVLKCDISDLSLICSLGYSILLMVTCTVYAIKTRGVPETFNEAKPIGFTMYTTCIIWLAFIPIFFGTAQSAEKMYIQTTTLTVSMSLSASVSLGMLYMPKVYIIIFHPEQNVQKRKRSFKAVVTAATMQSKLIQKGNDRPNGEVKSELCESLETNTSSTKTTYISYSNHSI
Consider `CC(=O)c1cccc(NC(=O)C2C3C=CC(C4CC34)C2C(=O)O)c1` (stereo not given), for which the z-score was -0.0714. `CN(O)/C=C1\C(=O)Nc2ccccc21` gave a z-score of -0.11.

With `CCN(CC)c1ccc(/C=N/N2C(=O)c3ccccc3C2=O)cc1`, the z-score was determined as 0.0646. On to `CCOC(=O)CN1CC23C=CC(O2)C(C(=O)O)C3C1=O` (stereo not given), for which the z-score is -0.832.

Regarding `CC(C)(C)c1ccc(C(=O)c2c[nH]c(C(=O)NCCCn3ccnc3)c2)cc1`, the z-score was -0.375. As to `COc1cccc(-c2nc(NCc3ccco3)c3ccccc3n2)c1O`, the z-score stood at 0.149. On to `O=C(CSc1nnc2ccccn12)Nc1cccc(S(=O)(=O)N2CCOCC2)c1`, for which the z-score is -0.299. Then `CC(=O)Oc1ccc(NC(=O)CCC2CCCCC2)c(C(=O)O)c1`, with -0.612. Then `Cc1cc(NC(=O)CCSc2nc(-c3ccco3)cc(C(F)(F)F)n2)n(-c2ccccc2)n1`, with -0.547; and `CCOC(=O)N1CCC(NC(=O)C2CCCN(Cc3nc(-c4cccc(Cl)c4)oc3C)C2)CC1` (stereo not given), with -0.647; and `Cc1nc(NC(=O)CN(C)S(=O)(=O)c2ccc(Cl)cc2)sc1C`, with 0.149. With `CCn1nc(C(=O)OC2CCOC2=O)c2ccccc2c1=O` (stereo not given), the z-score was 1.16. Then `Cc1ccc(NC(=O)N2CCCN(Cc3ccc(F)cc3)C2)cc1C`, with -0.435; and `O=C(COC(=O)c1ccccc1-c1ccccc1[N+](=O)[O-])c1ccccc1`, with -0.126. `Cc1cc(=O)[nH]c(SCCCOc2ccc3c(c2)CCC3)n1` gave a z-score of -0.838. Then `Cc1cccc(NC(=O)CSc2nnc(-c3ccco3)o2)c1C`, with 0.0721; and `COC(=O)c1cc(OC)c(OC)cc1NC(=O)CN1C(=O)c2ccccc2C1=O`, with -0.131; and `COc1ccc(OC)c(/C=N/NC(=O)Cc2nc3ccccc3[nH]2)c1`, with 0.0716. Molecule `COc1ccccc1OCC(=O)Nc1cccc(C(=O)N2CCOCC2)c1` returned a z-score of 0.0768. As for `N#CCSc1nnc(CNc2ccc(F)cc2)o1`, the z-score was 0.394. Molecule `Cn1c(=O)c2c(nc(SCCN3CCCCC3)n2Cc2ccc(Cl)cc2)n(C)c1=O` had a z-score of -0.743. Turning to `CCOc1c2ccc(C(=O)NCc3ccc(C(F)(F)F)cc3C(F)(F)F)cc2nn1C`, the z-score was -0.0208. In turn, `Nn1c(SCC(=O)Nc2ccccc2F)nc2ccccc2c1=O` displayed a z-score of -0.66. Take `Cc1ccc(-c2csc(N(Cc3ccco3)C(=O)c3cccs3)n2)cc1`: the z-score was -0.484.

`Cc1cccc(C(=O)NNC2=C(C(=O)C(F)(F)F)CCC2)c1O` gave a z-score of -0.745.

The molecule `CCN(CC)CCNC(=O)c1cc(Sc2nnc(C)s2)nc2ccccc12` displayed a z-score of 0.0421.

`O=C(O)COc1cccc(NC(=O)C2CCCO2)c1` (stereo not given) had a z-score of 0.711.

On to `Cc1ccccc1NC(=O)CSc1nnc(-c2ccccc2)n1-c1ccccc1`, for which the z-score was -0.183. The molecule `CC(C)(CO)NC(=O)CCCOc1ccc(Cl)cc1Cl` had a z-score of -0.125.

Molecule `O=C(CC1N=C2c3ccccc3N=C(SCc3ccccc3Cl)N2C1=O)NCc1ccco1` (stereo not given) returned a z-score of -0.146.
